Assay [1] deals with Rho-associated kinase 1 (Rock1) (mouse (endogenous in neonatal mouse cardiomyocytes and mouse heart)) (UniProt P70335). Briefly: co-IP; mouse heart (cardiac) tissue lysates; IP-Western blot for Rnd3, Rock1 and Drp1.
For assay [2], the target named is T1, Rnd3 (a Rho family GTPase 3) (mouse (endogenous in neonatal mouse cardiomyocytes and mouse heart)) (UniProt P61588).
T1 sequence: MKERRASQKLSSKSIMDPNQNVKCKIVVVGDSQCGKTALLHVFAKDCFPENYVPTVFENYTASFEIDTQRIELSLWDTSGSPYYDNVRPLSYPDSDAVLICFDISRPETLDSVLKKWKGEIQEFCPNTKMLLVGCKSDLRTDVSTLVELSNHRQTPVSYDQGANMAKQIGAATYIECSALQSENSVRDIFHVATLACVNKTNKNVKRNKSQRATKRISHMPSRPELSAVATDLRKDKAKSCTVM
Described as above.

Chains of the proteins cited; added tags and fusions are not shown.
UniProt P70335: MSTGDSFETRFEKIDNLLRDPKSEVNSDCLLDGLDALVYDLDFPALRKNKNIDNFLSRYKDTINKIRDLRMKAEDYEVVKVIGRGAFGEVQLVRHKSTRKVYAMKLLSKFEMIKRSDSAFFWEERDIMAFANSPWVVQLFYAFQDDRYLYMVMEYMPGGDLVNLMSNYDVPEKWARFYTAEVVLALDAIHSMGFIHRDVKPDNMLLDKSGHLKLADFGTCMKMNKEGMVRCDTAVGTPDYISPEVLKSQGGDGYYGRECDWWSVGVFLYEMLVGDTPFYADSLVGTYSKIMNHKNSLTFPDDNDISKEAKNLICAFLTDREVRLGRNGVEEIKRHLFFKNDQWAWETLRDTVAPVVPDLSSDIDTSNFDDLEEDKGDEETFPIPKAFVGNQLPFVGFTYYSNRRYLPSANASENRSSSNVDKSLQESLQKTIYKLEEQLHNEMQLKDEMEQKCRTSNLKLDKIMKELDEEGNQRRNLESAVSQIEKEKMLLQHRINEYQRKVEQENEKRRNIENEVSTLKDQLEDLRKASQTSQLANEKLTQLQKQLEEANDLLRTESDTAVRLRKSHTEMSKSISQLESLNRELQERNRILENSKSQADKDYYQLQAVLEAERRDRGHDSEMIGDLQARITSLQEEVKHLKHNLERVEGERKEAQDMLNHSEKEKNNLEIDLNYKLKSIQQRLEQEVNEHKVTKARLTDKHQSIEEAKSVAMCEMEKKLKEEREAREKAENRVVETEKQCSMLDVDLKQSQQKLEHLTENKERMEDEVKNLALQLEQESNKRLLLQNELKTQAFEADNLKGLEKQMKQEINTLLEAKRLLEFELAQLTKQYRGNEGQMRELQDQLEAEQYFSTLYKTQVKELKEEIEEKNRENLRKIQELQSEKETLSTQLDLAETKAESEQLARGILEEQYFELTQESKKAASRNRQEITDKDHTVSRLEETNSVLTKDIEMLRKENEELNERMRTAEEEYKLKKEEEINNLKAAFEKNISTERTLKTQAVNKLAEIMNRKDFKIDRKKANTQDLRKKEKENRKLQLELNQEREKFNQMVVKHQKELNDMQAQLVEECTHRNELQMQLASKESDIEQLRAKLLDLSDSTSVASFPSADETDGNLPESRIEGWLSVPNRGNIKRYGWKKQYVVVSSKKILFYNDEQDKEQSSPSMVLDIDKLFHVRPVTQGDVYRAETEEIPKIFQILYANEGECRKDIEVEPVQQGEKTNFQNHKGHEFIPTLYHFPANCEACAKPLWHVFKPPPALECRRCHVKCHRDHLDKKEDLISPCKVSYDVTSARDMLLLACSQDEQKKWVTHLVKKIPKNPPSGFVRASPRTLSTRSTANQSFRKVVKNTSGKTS
UniProt Q8K1M6: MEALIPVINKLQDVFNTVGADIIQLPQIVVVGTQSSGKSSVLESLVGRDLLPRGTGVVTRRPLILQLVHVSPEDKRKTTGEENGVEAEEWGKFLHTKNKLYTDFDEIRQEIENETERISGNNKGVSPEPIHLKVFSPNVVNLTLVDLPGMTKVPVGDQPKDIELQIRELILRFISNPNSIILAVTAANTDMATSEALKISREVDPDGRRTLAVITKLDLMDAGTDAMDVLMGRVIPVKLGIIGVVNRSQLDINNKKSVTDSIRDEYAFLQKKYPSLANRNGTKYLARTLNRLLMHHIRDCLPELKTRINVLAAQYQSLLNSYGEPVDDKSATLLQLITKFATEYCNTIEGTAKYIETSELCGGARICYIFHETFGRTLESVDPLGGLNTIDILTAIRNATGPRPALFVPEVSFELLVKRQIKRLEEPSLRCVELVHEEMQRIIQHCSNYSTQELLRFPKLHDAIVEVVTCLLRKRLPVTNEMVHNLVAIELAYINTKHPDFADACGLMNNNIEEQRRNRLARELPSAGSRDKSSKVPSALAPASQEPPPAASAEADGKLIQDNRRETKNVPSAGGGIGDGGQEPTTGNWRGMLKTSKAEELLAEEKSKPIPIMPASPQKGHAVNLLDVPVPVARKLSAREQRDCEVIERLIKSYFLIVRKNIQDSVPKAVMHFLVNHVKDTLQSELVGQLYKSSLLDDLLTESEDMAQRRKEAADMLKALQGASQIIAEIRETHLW

In assay [3] the target is T1, Rnd3 (a Rho family GTPase 3) (mouse (endogenous in neonatal mouse cardiomyocytes and mouse heart)). The assay is described as follows: condition: only in the mitochondrial fraction isolated from cardiomyocytes; co-IP; mitochondrial fraction isolated from cardiomyocytes (differential centrifugation, mitochondria isolation kit); IP-Western blot.
For assay [4] the target is unchanged. Briefly: co-IP; cytoplasmic fraction of cardiomyocytes (differential centrifugation, mitochondria isolation kit); IP-Western blot.
The target is the same in assay [5]. Briefly: co-IP; lysates of primary mouse cardiomyocytes (500 ug protein) with 5 ug Rnd3 or Rock1 antibody or isotype IgG overnight at 4 °C; protein A/G magnetic beads; Western blot with Rnd3 and Rock1 antibodies.
Assay [6] addresses Rho-associated kinase 1 (Rock1) (mouse (endogenous in neonatal mouse cardiomyocytes and mouse heart)) (UniProt P70335). The description is as above.

No constants are given. Whether binding was seen depends on the method and setting. Binding seen in cells or lysates may run through a third protein. Some results given as binding are weak or reduced against the parent protein; the word gives no strength.

Consider “dynamin-related protein 1 (Drp1) (from UniProt Q8K1M6 1-736)”, for which the binding result in assay [1] and in assay [2] was “binds” in each case.

As for “Rho-associated kinase 1 (Rock1) (from UniProt P70335 1-1354) (enzyme)”, the binding result in assay [2] is given as “binds”; in assay [3] it was “no binding”; in assay [4], “binds”; in assay [5] it was “binds”.

B1: Rnd3 (a Rho family GTPase 3) (protein, UniProt P61588 1-244)
chain: MKERRASQKLSSKSIMDPNQNVKCKIVVVGDSQCGKTALLHVFAKDCFPENYVPTVFENYTASFEIDTQRIELSLWDTSGSPYYDNVRPLSYPDSDAVLICFDISRPETLDSVLKKWKGEIQEFCPNTKMLLVGCKSDLRTDVSTLVELSNHRQTPVSYDQGANMAKQIGAATYIECSALQSENSVRDIFHVATLACVNKTNKNVKRNKSQRATKRISHMPSRPELSAVATDLRKDKAKSCTVM
In the case of B1, in assay [6], the binding result is “binds”.
